Source: the antibiotic and cytotoxicity screens of Wong et al. (2023)
The other results are listed elsewhere or left out.

Columns and labels:
[1] = tested on: HSkMC (human skeletal muscle cells); test: cytotoxicity call (relative viability < 0.9); conditions: 10 µM
[2] = tested on: HepG2; test: cytotoxicity call (relative viability < 0.9); conditions: 10 µM
[3] = tested on: S. aureus RN4220; test: growth inhibition call (relative growth <= 0.2); conditions: 50 µM

Structure (SMILES) | cytotoxicity call [1] | cytotoxicity call [2] | growth inhibition call [3]
C[C@@H]1CN([C@H](C)CO)C(=O)c2cc(NC(=O)CCN3CCOCC3)ccc2O[C@@H]1CN(C)S(=O)(=O)c1cccs1 | inactive | inactive | inactive
C[C@@H]1CN([C@H](C)CO)C(=O)c2ccccc2-c2ccccc2CO[C@H]1CN(C)C(=O)Nc1cccc(Cl)c1Cl | inactive | inactive | inactive
CC(C)C[C@H](N)C(=O)N[C@@H](C)C(=O)O | inactive | active | inactive
O=c1cccc(C=Cc2ccc3c(c2)OCO3)o1 [6-(3,4-METHYLENEDIOXYSTYRYL)-alpha-PYRONE] | – | – | inactive
CO[C@@H]1CN(C)C(=O)c2cc(NC(=O)CN(C)C)ccc2OC[C@@H](C)N(Cc2ccccc2F)C[C@H]1C | inactive | inactive | inactive
C[C@H]1CN([C@@H](C)CO)C(=O)c2cccc(NC(=O)Nc3cccc4ccccc34)c2O[C@H]1CN(C)C(=O)Nc1ccc(C(F)(F)F)cc1 | active | active | inactive
C=CCSCC(N)C(=O)O (centres undefined) | inactive | inactive | inactive
